pKi: −log10 of the molar value. *1 amine or outer side, *2 acyl side, *3 side chain or, on linkers, in order; H or OH if unused. Where a SMILES comes first, the peptide text is derived from it. [ ]: non-standard residue; d: D form. The star is where a group is joined. ξ: configuration not given here. Pro(3R,4S-CMe2) = CC1(C)[C@@H]2[C@@H](C(=O)O)NC[C@@H]21; Pro(3S,4R-CMe2) = CC1(C)[C@H]2[C@@H](C(=O)O)NC[C@H]21; Adamantane1carbonyl = O=C(C12CC3CC(CC(C3)C1)C2)*; Benzenesulfonyl = O=S(=O)(c1ccccc1)*; Benzylsulfonyl = O=S(=O)(Cc1ccccc1)*; Adoc = O=C(OC12CC3CC(CC(C3)C1)C2)*; 1Naphthoyl = O=C(c1cccc2ccccc12)*; X4 = CCCCC(N[*:1])C(=O)C(=O)[*:2]; Hyp = O=C(O)[C@@H]1C[C@@H](O)CN1; X2 = CCCC(N[*:1])C(=O)C(=O)[*:2]; Chg = N[C@H](C(=O)O)C1CCCCC1; Phg = N[C@H](C(=O)O)c1ccccc1; Tle = CC(C)(C)[C@H](N)C(=O)O; ξChg = NC(C(=O)O)C1CCCCC1; ξPhg = NC(C(=O)O)c1ccccc1; Boc = CC(C)(C)OC(=O)*; ξNle = CCCCC(N)C(=O)O; Bn = c1ccc(C*)cc1; tBu = CC(C)(C)*; MEM = COCCOC*

Results on 23 compounds are retold here after US7592316B2, “Peptides as NS3-serine protease inhibitors of hepatitis C virus” (Schering Corporation, priority 2000, dated 2009).

The first assay has as its target HCV NS3/NS4A protease (strain 1a) (Hepatitis C virus genotype 1a, UniProt P27958). Kind of assay: biochemical. To be noted: Compounds prepared by Solid Phase Synthesis, Table 3; read-out: Ki* CLASS.
Regarding `CCCCC(NC(=O)C(CCCC)NC(=O)CNC(=O)C(=O)C(CCC)NC(=O)[C@@H]1C[C@@H](OCc2ccccc2)CN1C(=O)C(NC(=O)c1cccc2ccccc12)C1CCCCC1)C(N)=O` (some centres unmarked) (1Naphthoyl-[ξChg][Hyp](Bn)[X2]G[ξNle][ξNle]-NH2), the negative-log Ki (pKi) is 6.00 to 7.00.

With `CCCCC(NC(=O)CNC(=O)C(=O)C(CCC)NC(=O)[C@@H]1C[C@@H](OCOCCOC)CN1C(=O)C(NC(=O)C12CC3CC(CC(C3)C1)C2)C1CCCCC1)C(N)=O` (some centres unmarked) (Adamantane1carbonyl-[ξChg][Hyp](MEM)[X2]G[ξNle]-NH2), the negative-log Ki (pKi) was < 6.00. The same measure, in the same setting: the value for `CCCCC(NC(=O)[C@@H]1C[C@@H](OC(C)(C)C)CN1C(=O)[C@@H](NS(=O)(=O)c1ccccc1)C(C)C)C(=O)C(=O)NCC(=O)N[C@H](C(N)=O)c1ccccc1` (some centres unmarked) (Benzenesulfonyl-V[Hyp](tBu)[X4]G[Phg]-NH2) was < 6.00; that for `CCCC(NC(=O)[C@@H]1C[C@@H](OC(C)(C)C)CN1C(=O)[C@H](COC(C)(C)C)NC(=O)OC(C)(C)C)C(=O)C(=O)NCC(=O)N[C@H](C(N)=O)c1ccccc1` (some centres unmarked) (Boc-S(tBu)[Hyp](tBu)[X2]G[Phg]-NH2) was < 6.00; that for `CCCC(NC(=O)[C@@H]1C[C@@H](OC(C)(C)C)CN1C(=O)[C@@H](NC(=O)OC(C)(C)C)C(C)C)C(=O)C(=O)NCC(=O)N[C@H](C(N)=O)c1ccccc1` (some centres unmarked) (Boc-V[Hyp](tBu)[X2]G[Phg]-NH2) was 6.00 to 7.00. The same measure, in the same setting: under `CCCCC(NC(=O)[C@@H]1C[C@@H](OC(C)(C)C)CN1C(=O)[C@@H](NC(=O)OC(C)(C)C)C(C)C)C(=O)C(=O)NCC(=O)N[C@H](C(N)=O)c1ccccc1` (some centres unmarked) (Boc-V[Hyp](tBu)[X4]G[Phg]-NH2) stands 6.00 to 7.00; under `CCCC(NC(=O)[C@@H]1CCCN1C(=O)[C@@H](NC(=O)OC(C)(C)C)C1CCCCC1)C(=O)C(=O)NCC(=O)N[C@H](C(N)=O)c1ccccc1` (some centres unmarked) (Boc-[Chg]P[X2]G[Phg]-NH2), < 6.00.

Staying with this assay, now noted: Table 5; HCV NS3/NS4A protease, spectrophotometric assay, 30° C., pH 6.5; read-out: Ki* Range.
As to `CCCCC(NC(=O)[C@@H]1[C@H]2[C@@H](CN1C(=O)[C@@H](NC(=O)OC13CC4CC(CC(C4)C1)C3)C(C)(C)C)C2(C)C)C(=O)C(=O)NCC(=O)N[C@H](C(=O)N(C)C)c1ccccc1` (stereo partly drawn) (Adoc-[Tle][Pro(3S,4R-CMe2)][X4]G[Phg]-NMe2), the pKi was 7.00 to 9.00.

As to `CCCCC(NC(=O)[C@@H]1[C@@H]2[C@H](CN1C(=O)[C@@H](NS(=O)(=O)Cc1ccccc1)C(C)(C)C)C2(C)C)C(=O)C(=O)NCC(=O)NC(C(=O)N(C)C)c1ccccc1` (stereo partly drawn) (Benzylsulfonyl-[Tle][Pro(3R,4S-CMe2)][X4]G[ξPhg]-NMe2), the pKi is 6.00 to 7.00.

The assay is the same for the next values; noted with them: Table 6; HCV NS3/NS4A protease, 30° C., pH 6.5; read-out: Ki*.
Turning to `CCCC(NC(=O)[C@@H]1[C@@H]2[C@H](CN1C(=O)[C@@H](NC(=O)OC(C)(C)C)C1CCCCC1)C2(C)C)C(=O)C(=O)N[C@@H](CC(=O)N(C)C)c1ccccc1` (some centres unmarked), the negative-log Ki (pKi) is 6.00 to 7.00. Regarding `CN(C)C(=O)[C@@H](NC(=O)CNC(=O)C(=O)C(CC1CC1)NC(=O)[C@@H]1[C@@H]2[C@H](CN1C(=O)[C@@H](NC(=O)OC(C)(C)C)C1CCC(F)(F)CC1)C2(C)C)c1ccccc1` (some centres unmarked), the pKi was 7.00 to 9.00.

For `C=CCNC(=O)C(=O)C(CC(F)(F)F)NC(=O)[C@@H]1[C@@H]2[C@H](CN1C(=O)[C@@H](NC(=O)NC(C)(C)C)C1CCCCC1)C2(C)C` (some centres unmarked), the pKi was 7.00 to 9.00. Same read-out and setting: under `C=CCNC(=O)C(=O)C(CC(F)(F)F)NC(=O)[C@@H]1[C@@H]2[C@H](CN1C(=O)[C@@H](NC(=O)NC(C)(C)C)C(C)(C)C)C2(C)C` (some centres unmarked) stands 6.00 to 7.00; under `CC(C)(C)NC(=O)N[C@H](C(=O)N1C[C@H]2[C@@H]([C@H]1C(=O)NC(CC1CCC1)C(=O)C(=O)NCC(=O)NC(C)(C)c1ccccc1)C2(C)C)C(C)(C)C` (some centres unmarked), 6.00 to 7.00. Still for that read-out and setting: under `CCCC(NC(=O)[C@@H]1[C@@H]2[C@H](CN1C(=O)[C@@H](NC(=O)OC(C)(C)C)C1Cc3ccccc3C1)C2(C)C)C(=O)C(=O)NCCc1ccccc1` (some centres unmarked) stands 6.00 to 7.00; under `CCCNC(=O)C(=O)C(CCC)NC(=O)[C@@H]1[C@@H]2[C@H](CN1C(=O)[C@@H](NC(=O)OC(C)(C)C)C1Cc3ccccc3C1)C2(C)C` (some centres unmarked), 6.00 to 7.00. The same measure, in the same setting: the value for `CC(C)(C)OC(=O)N[C@H](C(=O)N1C[C@@H]2OC(C)(C)C[C@@H]2[C@H]1C(=O)NC(CC1CCC1)C(=O)C(N)=O)C1CCCCC1` (some centres unmarked) was 6.00 to 7.00.

`C=CCNC(=O)C(=O)C(CCCC)NC(=O)[C@@H]1[C@@H]2[C@H](CN1C(=O)[C@@H](NC(=O)OC1CCC(C)C1)C1CCCCC1)C2(C)C` (some centres unmarked): the negative logarithm of the Ki (pKi) was 6.00 to 7.00. Regarding `C=CCNC(=O)C(=O)C(CCCC)NC(=O)[C@@H]1[C@@H]2[C@H](CN1C(=O)[C@@H](NC(=O)OC1CCCC1C)C1CCCCC1)C2(C)C` (some centres unmarked), the pKi is 6.00 to 7.00. On the same count and under the same terms, the value for `C=CCNC(=O)C(=O)C(CCCC)NC(=O)[C@@H]1[C@@H]2[C@H](CN1C(=O)[C@@H](NC(=O)CC1CCCC1)C1CCCCC1)C2(C)C` (some centres unmarked) was 6.00 to 7.00; that for `C=CCNC(=O)C(=O)C(CCCC)NC(=O)[C@@H]1[C@@H]2[C@H](CN1C(=O)[C@@H](NC(=O)NC1CC3CCC1C3)C1CCCCC1)C2(C)C` (some centres unmarked) was 7.00 to 9.00. Regarding `C=CCNC(=O)C(=O)C(CCC)NC(=O)[C@@H]1[C@@H]2[C@H](CN1C(=O)C(NC(=O)OC1CCC(C)(C)C1)C1CCCCC1)C2(C)C` (some centres unmarked), the negative-log Ki (pKi) was 6.00 to 7.00. On the same count and under the same terms, under `C=CCNC(=O)C(=O)C(CCC)NC(=O)[C@@H]1[C@@H]2[C@H](CN1C(=O)C(NC(=O)OCC)C1CCCCC1)C2(C)C` (some centres unmarked) stands 6.00 to 7.00.

One may read the pKi as the Ki on a negative log10 scale, so that one unit is a factor of ten.
